# Measurements taken from the supplement of paper PMC4967469.
# The IC50 comes from the fitted curve, where viability falls to half of the control; where the fit passes the top or lowest dose, that dose stands as a limit. AUC, from the same fit, is the share of area under the viability curve across the 256-fold dose range; values near 1 show little effect. For part of these data: A top dose marked as inferred comes from the curve model; the source does not state it. For part of these data: An entry number marks a drug with two screens in the source, which often give different values.
# Legend:
# Assay in all cases: Viability of human cancer cell lines after 72 h of drug (GDSC screen)
# Thapsigargin = compound: C/C=C(/C)C(=O)O[C@H]1C(C)=C2[C@H]([C@@H]1OC(=O)CCCCCCC)[C@@](C)(OC(C)=O)C[C@H](OC(=O)CCC)[C@@]1(O)[C@H]2OC(=O)[C@@]1(C)O [Thapsigargin]; conditions: top dose 0.512 µM; top dose inferred
# Description: (§1)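 Human cancer cell lines in 384-well plates, medium with 10% serum, drug for 72 h over a 256-fold dose range (nine 2-fold or five 4-fold steps up to the top dose). Adherent lines were fixed and stained with the nucleic acid dye Syto60, suspension lines read with resazurin; signal relative to control wells, capped at 0 and 100%. One two-parameter sigmoid per drug and line, fitted in a mixed model over all curves with the slope shared within a line.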
# QL-X-138 = compound: C=CC(=O)Nc1cc(-n2c(=O)ccc3cnc4ccc(-c5cn[nH]c5)cc4c32)ccc1C [QL-X-138]; conditions: top dose 10.24 µM; top dose inferred
# Description: as §1
# MPS-1-IN-1 = compound: COc1cc(N2CCC(O)CC2)ccc1Nc1cc(Nc2ccccc2S(=O)(=O)C(C)C)c2cc[nH]c2n1 [MPS-1-IN-1]; conditions: top dose 20 µM; top dose inferred
# Description: as §1
# CP466722 = compound: COc1cc2ncnc(-n3nc(-c4ccccn4)nc3N)c2cc1OC [CP466722]; conditions: top dose 16 µM; top dose inferred
# Description: as §1
# Zibotentan = compound: COc1nc(C)cnc1NS(=O)(=O)c1cccnc1-c1ccc(-c2nnco2)cc1 [Zibotentan]; conditions: top dose 20 µM; top dose inferred
# Description: as §1
# ABT-888 = compound: C[C@]1(c2nc3c(C(N)=O)cccc3[nH]2)CCCN1 [ABT-888]; conditions: top dose 5 µM; top dose inferred
# Description: as §1
# ABT-869 = compound: Cc1ccc(F)c(NC(=O)Nc2ccc(-c3cccc4[nH]nc(N)c34)cc2)c1 [ABT-869]; conditions: top dose 1.024 µM; top dose inferred
# Description: as §1
# CHIR-99021 = compound: Cc1cnc(-c2cnc(NCCNc3ccc(C#N)cn3)nc2-c2ccc(Cl)cc2Cl)[nH]1 [CHIR-99021]
# Description: as §1
# Cytarabine = compound: Nc1ccn([C@@H]2O[C@H](CO)[C@@H](O)[C@@H]2O)c(=O)n1 [Cytarabine]; conditions: top dose 2 µM
# Description: as §1
# KU-55933 = compound: O=c1cc(-c2cccc3c2Sc2ccccc2S3)oc(N2CCOCC2)c1 [KU-55933]; conditions: top dose 10 µM
# Description: as §1
# GSK269962A = compound: CCn1c(-c2nonc2N)nc2cnc(Oc3cccc(NC(=O)c4ccc(OCCN5CCOCC5)cc4)c3)cc21 [GSK269962A]; conditions: top dose 5 µM; screen: GDSC drug entry 1192; top dose inferred
# Description: as §1
# (5Z)-7-Oxozeaenol = compound: COc1cc(O)c2c(c1)/C=C/C[C@H](O)[C@H](O)C(=O)/C=C\C[C@H](C)OC2=O [(5Z)-7-Oxozeaenol]; conditions: top dose 10 µM; top dose inferred
# Description: as §1
# [1] = top dose 2.56 µM, screen: GDSC drug entry 154
# [2] = top dose 10 µM, screen: GDSC drug entry 1241, top dose inferred
Cell Line,AUC (Thapsigargin),IC50 (Thapsigargin) [µM],AUC (QL-X-138),IC50 (QL-X-138) [µM],AUC (MPS-1-IN-1),IC50 (MPS-1-IN-1) [µM],AUC (CP466722),IC50 (CP466722) [µM],AUC (Zibotentan),IC50 (Zibotentan) [µM],AUC (ABT-888),IC50 (ABT-888) [µM],AUC (ABT-869),IC50 (ABT-869) [µM],AUC (CHIR-99021; [1]),IC50 (CHIR-99021; [1]) [µM],AUC (Cytarabine),IC50 (Cytarabine) [µM],AUC (KU-55933),IC50 (KU-55933) [µM],AUC (GSK269962A),IC50 (GSK269962A) [µM],AUC ((5Z)-7-Oxozeaenol),IC50 ((5Z)-7-Oxozeaenol) [µM],AUC (CHIR-99021; [2]),IC50 (CHIR-99021; [2]) [µM]
"SAT (head and neck, adherent)",0.477,0.0267,0.953,> 10.2,0.84,> 20,0.826,> 16,0.974,> 20,0.882,> 5,0.966,> 1.02,0.935,> 2.56,0.844,> 2,0.943,> 10,,,,,,
"SK-MG-1 (glioma, adherent)",,,0.916,> 10.2,0.957,> 20,0.987,> 16,0.985,> 20,0.985,> 5,0.97,> 1.02,,,0.68,0.401,0.977,> 10,0.933,> 5,0.7,2.3,0.976,> 10
"SNU-61 (large intestine, adherent)",,,0.821,8.62,0.833,19,0.811,12.1,0.972,> 20,0.985,> 5,0.963,> 1.02,,,0.951,> 2,0.985,> 10,0.977,> 5,0.983,> 10,0.983,> 10
"SNU-81 (large intestine, adherent)",,,0.677,2.38,0.982,> 20,0.691,4.17,0.982,> 20,0.756,2.26,0.973,> 1.02,,,0.846,> 2,0.906,> 10,0.93,> 5,0.735,3.77,0.972,> 10
"SNU-407 (large intestine, adherent)",,,0.764,4.32,0.788,10.4,0.807,9.9,0.973,> 20,0.974,> 5,0.983,> 1.02,,,0.812,1.3,0.965,> 10,0.666,0.986,0.506,0.652,0.981,> 10
"SNU-C5 (large intestine, adherent)",,,0.887,> 10.2,0.939,> 20,0.936,> 16,0.985,> 20,0.985,> 5,0.974,> 1.02,,,0.696,0.474,0.906,> 10,0.96,> 5,0.634,1.53,0.894,> 10
"STS-0421 (soft tissue, adherent)",0.267,0.00609,,,,,0.747,5.87,,,0.982,> 5,,,0.982,> 2.56,0.82,1.41,0.982,> 10,0.884,> 5,0.593,1.18,0.959,> 10
"SW1271 (small cell lung carcinoma, adherent)",,,0.599,1.25,0.848,18.5,0.748,5.85,0.98,> 20,0.984,> 5,0.982,> 1.02,0.891,> 2.56,0.767,0.852,0.977,> 10,0.891,> 5,0.587,1.12,0.857,> 10
"TE-4 (oesophagus, adherent)",,,0.823,6.03,0.969,> 20,0.962,> 16,0.985,> 20,0.987,> 5,0.983,> 1.02,,,0.698,0.449,0.932,> 10,0.902,> 5,0.807,5.1,0.957,> 10
"TOV-112D (ovary, adherent)",0.084,< 0.002,,,0.885,> 20,0.693,3.49,0.976,> 20,0.974,> 5,0.971,> 1.02,0.986,> 2.56,0.763,0.728,0.907,> 10,0.876,> 5,0.544,0.822,0.984,> 10
"UWB1.289 (ovary, adherent)",,,0.816,9.82,0.934,> 20,0.872,> 16,0.95,> 20,0.979,> 5,0.975,> 1.02,,,0.907,> 2,0.932,> 10,0.975,> 5,0.724,3.78,0.948,> 10
"WM35 (melanoma, adherent)",0.287,0.00796,,,0.686,4.18,0.985,> 16,0.974,> 20,0.983,> 5,0.977,> 1.02,0.887,> 2.56,0.788,0.886,0.96,> 10,0.983,> 5,0.115,< 0.0391,0.942,> 10
